Reference: PubChem BioAssay AID1345082 (National Center for Advancing Translational Sciences (NCATS), 2018)
The whole screen tested about 94,000 compounds, of which about 4,000 (4.3%) were called active. The shares of active, inactive and inconclusive entries below differ from those in the screen. The call rests on the fitted dose curve; in most records, active means well fitted inhibition curve with a large enough effect; inconclusive means small, poorly fitted or top-dose-only effect; inactive means no such curve, though single readings can be large or run the other way. Where the call is inconclusive, the potency comes from a doubtful curve fit.

test: Cytotoxic Profiling in NIH 3T3 Cell Line of Diverse Libraries Using Quantitative High-Throughput Screening; settings: NIH 3T3 viability, CellTiter-Glo ATP luminescence, 48-72 h; activity change, negative = cytotoxicity: at 96.7 µM (top of the series) unless noted; series mostly up to 96.7 µM; further: nearly all actives have a fitted effect of over 55% in size
How it was run: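 Cytotoxicity was measured by CellTiter-Glo ATP luminescence after 48 or 72 h compound exposure at 37 °C. Mouse NIH 3T3 fibroblasts were seeded at 400 cells/well and dosed by 23 nL pin transfer.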
On the % scale 0 is the no-effect control and ±100 the full control effect; potency means the concentration at half of the fitted maximal effect; tags describe the fitted curve by direction and shape.

SMILES	Potency	activity change, negative = cytotoxicity
COc1ccc(NC(=O)N(C)Cc2cccc(C(F)(F)F)c2)cc1	inconclusive: 79.4 µM [inhibitor, partial curve]	–
CCCNC(=O)N1CCC(Cc2noc(C3CCOCC3)n2)C1 (centres undefined)	–	inactive: -10.3%
COc1ccc(C(=O)N2CCc3ccc(C(=O)NCc4cccc(C)c4)cc32)cc1	inconclusive: 39.8 µM [inhibitor, partial curve, poor fit]	–
O=C(NCCc1ccccc1)C1CCCN(c2nccc(Nc3ccccc3F)n2)C1 (centres undefined)	active: 22.4 µM	–
CCn1ccnc1C1CCN(c2nc3ccccc3s2)CC1	–	inactive: -1.45%
O=C1NC(=NC2CCCC2)C2(CCCN(CC3CCCCC3)C2)N1c1cc(F)cc(F)c1 (centres undefined)	active: 28.2 µM	–
COc1ccc(S(=O)(=O)NC[C@H]2Cn3c(-c4ccc(F)cc4)cnc3CO2)cc1	inconclusive: 100 µM [inhibitor, partial curve, poor fit]	–
COc1ccc(-c2nc(C3CN(C(=O)c4cc(F)cc(F)c4)C3)no2)cc1	inconclusive: 44.7 µM [inhibitor, partial curve]	–
CN1C[C@@H](NC(=O)c2ccc3c(c2)OCO3)C[C@H]1c1nc(-c2ccc(Cl)cc2)no1	active: 79.4 µM	–
Cn1ncc2c(C(=O)N3CCOCC3)cc(-c3ccccc3F)nc21	inconclusive: 63.1 µM [inhibitor, partial curve, poor fit]	–
O=C(c1ccc2[nH]ccc2c1)N1CCC2(CC1)N=C(c1ccc(Br)cc1)NO2	inconclusive: 50.1 µM [inhibitor, partial curve, poor fit]	–
Cc1cnc(C(=O)N[C@@H]2CCC[C@@H]2C(=O)N2CCN(c3cccc(C)c3C)CC2)cn1	–	inactive: -32.8%
Cc1cccc(C)c1-c1nc(C(=O)N2CCCC2)n2ccccc12	inconclusive: 89.1 µM [inhibitor, partial curve]	–
COC[C@H]1CCCN1Cc1nc(C2(O)CCN(Cc3ccccc3O)CC2)cs1	inconclusive: 79.4 µM [inhibitor, partial curve, poor fit]	–
CCc1nc2c(c(-c3ccc(Cl)cc3)n1)CCN([S+](=O)([O-])c1cccs1)CC2	inconclusive: 50.1 µM [inhibitor, partial curve, poor fit]	–
CCN(Cc1ccccc1)C(=O)CC1CCCN(c2cnn(CCOC)c(=O)c2)C1 (centres undefined)	inconclusive: 70.8 µM [inhibitor, single point]	–
COCc1nc(C2CCCN(C(=O)Nc3cccc(F)c3C)C2)no1 (centres undefined)	–	inactive: -21.7%
CN1c2cc(C(=O)NCc3ccc(F)cc3Cl)ccc2C(=O)N2CCCCC21 (centres undefined)	–	inactive: -28.3%
COc1ccc(S(=O)(=O)N2CCCN(C)c3ccccc32)cc1	inconclusive: 10 µM [inhibitor, full curve]	–
O=C(c1ccc(Br)o1)N1c2ccccc2CC1c1nnc(C2CCOCC2)o1 (centres undefined)	inconclusive: 50.1 µM [inhibitor, partial curve, poor fit]	–
Cc1ccc(-c2nc(C3CC(=O)N(c4ccc(Cl)cc4)C3)no2)c(C)c1 (centres undefined)	inconclusive: 56.2 µM [inhibitor, partial curve, poor fit]	–
Cc1ccc(S(=O)(=O)N2CCC(n3cnnc3C(C)C)CC2)cc1C	inconclusive: 44.7 µM [inhibitor, partial curve, poor fit]	–

SMILES	Potency	activity change, negative = cytotoxicity
OC[C@H]1CCN(Cc2ccc(-c3ccn[nH]3)o2)C[C@H]1O	–	inactive: -8.83%
CC1CCCN1c1ccc(C(=O)N2CCC(Oc3cccnc3)CC2)cn1 (centres undefined)	inconclusive: 44.7 µM [inhibitor, partial curve, poor fit]	–
COC(=O)N(C)Cc1cccc(N2CCN(C(c3ccccc3)c3ccccc3)CC2)c1	inconclusive: 44.7 µM [inhibitor, partial curve, poor fit]	–
Cc1noc(C)c1-c1ccc2c(n1)CN(CCOc1ccccc1)C(=O)CO2	inconclusive: 56.2 µM [inhibitor, partial curve, poor fit]	–
O=C(Cc1ccccc1)N1CCC[C@H]1c1nc(-c2ccccc2)no1	inconclusive: 50.1 µM [inhibitor, partial curve, poor fit]	–
CC(C)Cc1cc(CC2(NC3CCCCC3)COC2)no1	–	inactive: -19.1% [at 174 µM]
CCn1nc(CC(C)C)cc1C(=O)NCC1CCCN(Cc2ccco2)C1 (centres undefined)	inconclusive: 28.2 µM [inhibitor, full curve, poor fit]	–
Cn1c2c(c3cc(F)ccc31)CN(C(=O)Nc1ccc(Cl)cc1)CC2	active: 28.2 µM	–
Cc1cccc(S(=O)(=O)N2[C@@H]3CC[C@H]2CC(NC(=O)c2ccc(F)cc2)C3)c1 (some centres undefined)	inconclusive: 50.1 µM [inhibitor, partial curve, poor fit]	–
CN1Cc2ncnc(NCC3CC3)c2CN(c2ccc(Cl)cc2)C1=O	inconclusive: 50.1 µM [inhibitor, partial curve, poor fit]	–
Cc1ccc(C(=O)N2CCN(c3nnc4c(Cl)cccn34)CC2)cc1	–	inactive: -8.9%
Cc1cccc(OCC(=O)N2CCCC(c3noc(COc4ccccc4)n3)C2)c1 (centres undefined)	inconclusive: 50.1 µM [inhibitor, partial curve, poor fit]	–
COc1ccc(C(=O)N2CCN3CCS(=O)(=O)N(C4CC4)C(=O)C3C2)c(OC)c1 (centres undefined)	–	inactive: -9.89%
COc1cccc(CN2CCC3(CC2)NCCc2c3[nH]c3ccc(OC)cc23)c1	inconclusive: 44.7 µM [inhibitor, partial curve, poor fit]	–
CN(C)C(=O)N1CCC2(CC1)CN(Cc1ccc(O)cc1)Cc1ccccc1O2	–	inactive: -17.2%
O=C(C1CCN(c2nccc(Nc3ccccc3Cl)n2)CC1)N1CCC(Cc2ccccc2)CC1	inconclusive: 25.1 µM [inhibitor, full curve]	–
O=C(NCc1ccc(F)cc1F)c1ccc(N2CC3CC(C2)[C@H]2CCCC(=O)N2C3)nc1 (some centres undefined)	active: 28.2 µM	–
COCc1cc(C[C@@H]2C[C@H](NC(=O)CC(C)(C)C)C2(C)C)no1	inconclusive: 39.8 µM [inhibitor, full curve]	–
O=C1c2c(nc(COc3ccc(F)cc3)n2Cc2ccccc2)NCCN1CCOc1ccccc1	inconclusive: 14.1 µM [inhibitor, full curve, poor fit]	–
COc1ccc(-c2cn(C)c(=O)n3cc(COc4ccccc4)nc23)c(C)c1	inconclusive: 100 µM [inhibitor, single point]	–
O=C(CC1CCCN(c2cn[nH]c(=O)c2)C1)N1CCN(c2cccc(Cl)c2)CC1 (centres undefined)	inconclusive: 44.7 µM [inhibitor, partial curve, poor fit]	–
CCOC(=O)c1ccc(NC(=O)N2Cc3[nH]cnc3C[C@H]2c2nc(-c3ccc(OC(F)(F)F)cc3)no2)cc1	active: 25.1 µM	–

SMILES	Potency	activity change, negative = cytotoxicity
Cc1noc(C)c1[S+](=O)([O-])N1CCn2c(nn(-c3cccc(Cl)c3)c2=O)C1	–	inactive: -16.1%
CC1=C[C@@H](CN2CCOCC2)[C@H](C(C)C)C[C@H]1Cc1nnc(-c2ccc([N+](=O)[O-])cc2)o1	active: 35.5 µM	–
O=C(c1ccc(C(F)(F)F)cc1)N1CCC(C(=O)N2CCC(c3nc4ccncc4[nH]3)C2)CC1 (centres undefined)	–	inactive: -21.7%
CN1c2cc(C(=O)Nc3ccc(Cl)c(F)c3)ccc2C(=O)N2CCCCCC21 (centres undefined)	inconclusive: 50.1 µM [inhibitor, single point]	–
CNC(=O)[C@@H]1C[C@@H](n2cc(CN(C)C(=O)c3cc4ccccc4s3)nn2)CN1	–	inactive: -17.2%
Cc1ccccc1N(C)C1CN(C(=O)c2ccccn2)C1	inconclusive: 89.1 µM [inhibitor, partial curve, poor fit]	–
CCCCCNC(=O)Cc1csc2nc(C)c(-c3cc(C)n(-c4ccccc4F)n3)c(=O)n12	inconclusive: 7.08 µM [inhibitor, full curve, poor fit]	–
COc1ccccc1-c1cccc(C(=O)N2CCC[C@H]2C(=O)NCc2ccccc2F)c1	–	inactive: -25.5%
O=C1[C@H]2CN(Cc3ccc(F)c(Cl)c3)C[C@H]2C(=O)N1CCc1ccccc1	inconclusive: 50.1 µM [inhibitor, partial curve, poor fit]	–
O=S(=O)(c1ccccc1)N1CCC(F)(c2nc(Cc3ccccc3)no2)CC1	inconclusive: 44.7 µM [inhibitor, partial curve, poor fit]	–
O=C(C1CCCCC1)N1CCC(Cc2ccc(CO)cc2)CC1	inconclusive: 44.7 µM [inhibitor, partial curve, poor fit]	–
COc1ccccc1-c1ccnc(N[C@H]2CO[C@H]3[C@@H]2OC[C@@H]3NC(=O)c2ccc(C(F)(F)F)cc2)n1	inconclusive: 79.4 µM [inhibitor, partial curve]	–
CN1CCN(c2cc(=O)c3ccnc(-c4cn[nH]c4)c3o2)CC1	inconclusive: 56.2 µM [inhibitor, partial curve, poor fit]	–
Cc1cc(F)ccc1-c1[nH]nc2ncc(-c3ccnn3C)nc12	–	inactive: -25.2% [at 138 µM]
Cc1ccc(S(=O)(=O)N2CCCN(C)c3ccccc32)cc1Cl	inconclusive: 39.8 µM [inhibitor, partial curve, poor fit]	–
CN(Cc1ccc(F)cc1)Cc1cccnc1	–	inactive: -16.1% [at 174 µM]
Cn1cccc1-c1noc(C2CCN(Cc3noc(-c4ccccc4)n3)C2)n1 (centres undefined)	inconclusive: 50.1 µM [inhibitor, partial curve, poor fit]	–
CC1(C)C(=O)N(CC2CCOCC2)[C@H]2CN(Cc3ccccc3)C[C@@H]2[S+]1(=O)[O-]	inconclusive: 112 µM [inhibitor, single point]	–
O=C(c1cc(F)ccc1F)N1CCCC(c2nnnn2-c2ccccc2)C1 (centres undefined)	–	inactive: -27.7%
CC(C)(Oc1nn(CC2CCOCC2)c2ccccc12)C(=O)NCCc1cccnc1	inconclusive: 100 µM [inhibitor, partial curve]	–
